Experimental data reported in PubChem BioAssay AID1645887 (National Center for Advancing Translational Sciences (NCATS), 2021).
“And” between values parts separate entries of the source, which are not always exact repeats. Equal values may be shown once. Out of some 16,000 compounds screened, about 40 (0.2%) were called active. About 1% were inconclusive and are not listed. The call rests on the fitted dose curve; in most records, active means well fitted activation curve with a large enough effect; inconclusive means small, poorly fitted or top-dose-only effect, or another doubt; inactive means no such curve, though single readings can be large or run the other way. The list shows a part of the results. Starred links: 1 amine or outer side, 2 acyl side, 3 side chain; linkers in the order of their positions; H or OH if unused. Non-standard residues stand in square brackets, D forms with d. Residues, ends and D or L forms follow the SMILES beside them. X10 = C[C@H](O)[C@@H](C(=O)[*:2])N(C(C)(C)C)[*:1]; X9 = CC(C)(C)N([C@@H](CS)C(=O)[*:2])[*:1]

The compounds below were run against Rap guanine nucleotide exchange factor 4 (Homo sapiens) (UniProt Q8WZA2) (assay: Validation qHTS for agonist of cAMP-regulated guanine nucleotide exchange factor 4 (EPAC2)). Conditions: EPAC2 Rap1B BODIPY-GDP exchange, fluorescence; activation: active compounds read high.
From the text: Principle Investigator: Xiaodong Cheng Ph.D.
The University of Texas Medical Branch, […], TX
In multi-cellular eukaryotic organisms, the effects of cAMP are transduced by two ubiquitously-expressed intracellular cAMP receptors, the classic protein kinase A/cAMP-dependent protein kinase (PKA/cAPK) and the more recently discovered exchange protein directly activated by cAMP/cAMP-regulated guanine nucleotide exchange factor (EPAC/cAMP-GEF). Both PKA and EPAC are ubiquitously expressed in all tissues, and an increase in intracellular cAMP levels will lead to the activation of both PKA and EPAC. Therefore, careful dissections of the individual role and relative contribution of EPAC and PKA within the overall cAMP signaling in various model systems are critical for further elucidating the mechanism of cAMP signaling. To date no EPAC-specific antagonists and agonist, as well as isoform-specific agonists have been reported, and developing EPAC-specific pharmacological probes to determine the physiological functions that EPAC play in the overall cAMP-mediated signaling remains a major challenge within the research field. Furthermore, identified regulators of EPAC may lead to new mechanism-based therapeutic strategies specifically targeting the EPAC / cAMP-signaling components as EPAC has been implicated to play important roles in major human pathological conditions such as diabetes, heart disease, and cancer.
This qHTS will be used to screen the Molecular Libraries Small Molecule Repository (MLSMR) as a concentration-titration series using the NCGC unique quantitative screening (qHTS) platform to find activators for EPAC1. In addition, this assay will also be used as a counterscreen for the EPAC2 qHTS. This fluorescent based assay is developed and validated for EPAC1 that measures exchange using EPAC effector Rap1 complex with BODIPY-GDP, a GDP analog with a tethered fluorophores. Activators are identified by monitoring the change in fluorescence signal as the exchanged free BODIPY-GDP has a reduced fluorescence compared to Rap1-bound BODIPY-GDP. Increase in signal (activation) is the desired outcome for the EPAC1 agonist while no activity in this assay is desired for the EPAC2 agonist counterscreen.
[1] de Rooij, J., Zwartkruis, F. J., Verheijen, M. H., Cool, R. H., Nijman, S. M., Wittinghofer, A., and Bos, J.L. (1998) Nature 396, 474-477.
Briefly, three uL of reagents (100 nM EPAC2, 250 nM RAP1B-BODIPY-GDP, 50 uM GDP) were dispensed into a 1536-well Greiner black solid-bottom medium binding assay plate. Controls and test compounds (23 nL) were transferred to the plate via a Kalypsys pin tool equipped with a 1536-pin array. The plates were centrifuged at 1,000 rpm for 15 seconds followed by 5 minute incubation at room temperature. The assay plates were read at 5 minute intervals for 30 minutes in the ViewLux plate reader using 480nm excitation and 540nm emission filters. The results were normalized to the agonist positive control of 6.5 mM cAMP.
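Further: exchange makes BODIPY-GDP fluorescence drop when released from Rap1B; series mostly up to about 150 µM.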
On the % scale 0 is the no-effect control and ±100 the full control effect.

Sequence of UniProt Q8WZA2 (Q8WZA2 whole entry, looked up): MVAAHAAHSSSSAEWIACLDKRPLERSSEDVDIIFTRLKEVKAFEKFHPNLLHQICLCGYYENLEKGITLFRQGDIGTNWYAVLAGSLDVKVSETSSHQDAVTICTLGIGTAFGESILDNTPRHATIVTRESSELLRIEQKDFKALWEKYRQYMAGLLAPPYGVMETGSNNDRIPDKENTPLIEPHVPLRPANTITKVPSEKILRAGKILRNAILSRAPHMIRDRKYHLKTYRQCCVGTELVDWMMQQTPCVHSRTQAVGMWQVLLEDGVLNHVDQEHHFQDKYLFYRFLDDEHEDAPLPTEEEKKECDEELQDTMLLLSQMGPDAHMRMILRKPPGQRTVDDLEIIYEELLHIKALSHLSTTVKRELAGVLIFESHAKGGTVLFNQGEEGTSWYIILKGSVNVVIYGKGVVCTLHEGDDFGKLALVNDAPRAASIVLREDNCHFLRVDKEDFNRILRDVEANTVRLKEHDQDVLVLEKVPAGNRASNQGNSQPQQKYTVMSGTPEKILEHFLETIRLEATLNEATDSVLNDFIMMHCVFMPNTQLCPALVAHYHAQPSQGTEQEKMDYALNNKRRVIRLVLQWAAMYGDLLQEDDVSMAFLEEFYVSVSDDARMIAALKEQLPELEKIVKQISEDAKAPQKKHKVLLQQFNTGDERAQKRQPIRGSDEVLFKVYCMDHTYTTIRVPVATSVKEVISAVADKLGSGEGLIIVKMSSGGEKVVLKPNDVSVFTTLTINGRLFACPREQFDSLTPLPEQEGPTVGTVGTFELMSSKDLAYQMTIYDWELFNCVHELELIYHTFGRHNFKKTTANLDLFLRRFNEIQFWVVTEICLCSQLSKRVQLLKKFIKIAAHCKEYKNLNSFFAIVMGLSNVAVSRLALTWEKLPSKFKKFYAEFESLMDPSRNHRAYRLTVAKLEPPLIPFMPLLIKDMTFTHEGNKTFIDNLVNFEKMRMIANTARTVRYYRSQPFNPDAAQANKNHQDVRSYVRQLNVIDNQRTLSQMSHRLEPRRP

SMILES	activation
O=[N+]([O-])c1c(Cl)c(Cl)cc(Cl)c1Cl	inactive: -9.47%
CCCCCCCCCCCCCCCC(=O)OC[C@H](COP(=O)([O-])OCC[N+](C)(C)C)OC(C)=O	inactive: -16.1%
Cc1ccc(N=CN(C)C=Nc2ccc(C)cc2C)c(C)c1	inactive: -24%
CC(C)C[C@H](NC(=O)[C@H](Cc1ccccc1)NC(=O)CNC(=O)[C@H](CS)N(C(=O)[C@@H](N)Cc1ccc(O)cc1)C(C)(C)C)C(=O)N([C@H](C(=O)O)[C@H](C)O)C(C)(C)C (H-Y[X9]GFL[X10]-OH)	inactive: 0.782%
C=CCN1CC[C@]23c4c5ccc(O)c4O[C@H]2/C(=N/NC(=O)c2ccccc2)CC[C@@]3(O)[C@H]1C5	inactive: -2.11%
CC(C)CC(N(C)C)C1(c2ccc(Cl)cc2)CCC1 (stereo not drawn)	inactive: 6.35%
CNC1(c2ccccc2Cl)CCCCC1=O (stereo not drawn)	inactive: -2.74%
N#CN	inactive: -18.8%
CNC(C)C(O)c1ccc(O)cc1 (stereo not drawn)	inactive: 8.62% and inactive: -1.8%
CNC(=O)O/N=C(/C)SC	inactive: -11.5%
COc1ccc(CC2c3cc(OC)c(OC)cc3CCN2C)cc1OC (stereo not drawn)	inactive: -3.53%
COc1cc2c(cc1OC)[C@@H]1C(=O)c3ccc4c(c3OC1CO2)CC(C(C)C)O4 (stereo partly drawn)	inactive: 13.7%
N#C/C(=C\c1cccc(O)c1)C(=O)O	inactive: -5.5%
COP(=S)(OC)Oc1ccc(SC)c(C)c1	inactive: 1.35% and inactive: -16.1%
CN(CCc1ccc(Cl)c(Cl)c1)[C@H]1CCCC[C@H]1N1CCCC1	inactive: -15%
O=c1[nH]c2ccccc2n1CCCN1CCC(n2c(=O)[nH]c3cc(Cl)ccc32)CC1	inactive: 2.32% [middle of 4 runs]
C[N+](C)(C)CC(=O)O	inactive: -15.5%
c1ccc(C2(N3CCCC3)CCCCC2)cc1	inactive: -6.34%
O=C(O)COc1nc(Cl)c(Cl)cc1Cl	inactive: -4.93%
CC1CCCC(=O)CCC/C=C/c2cc(O)cc(O)c2C(=O)O1 (stereo not drawn)	inactive: 6.7%
COC1C(O)C(OC2CC[C@]3(C=O)C4C(OC(C)=O)C[C@@]5(C)C(C6=CC(=O)OC6)CC[C@]5(O)C4CC[C@]3(O)C2)OC(C)C1OC(C)=O (stereo partly drawn)	inactive: -6.4%
CN1C[C@H](CNC(=O)OCc2ccccc2)C[C@H]2c3cccc4c3c(cn4C)C[C@@H]21	inactive: -9.94%
C#C[C@]1(O)CC[C@H]2[C@@H]3CCC4=CC(=O)CC[C@]4(C)[C@H]3CC[C@@]21C	inactive: 9.66% and inactive: -5.05%
COP(=S)(OC)SCn1nnc2ccccc2c1=O	inactive: -21.5%

SMILES	activation
C[C@H]1CC[C@@H]2[C@@H](C)[C@H]3[C@H](C[C@H]4[C@@H]5CC=C6CC(O[C@@H]7O[C@H](CO)[C@H](O)[C@H](O[C@@H]8O[C@H](CO)[C@@H](O)[C@H](O)[C@H]8O)[C@H]7O[C@H]7O[C@@H](C)[C@H](O)[C@@H](O)[C@H]7O)CC[C@]6(C)[C@H]5CC[C@]34C)N2C1 (stereo partly drawn)	inactive: -37.6%
CC(C)[N+](C)(CCC(C(N)=O)(c1ccccc1)c1ccccc1)C(C)C	inactive: -8.33% and inactive: -1.53%
CCCCC[C@@H](O)C1C(=O)OC(C)[C@H](O)/C=C/C=C/C=C/C=C/C=C(\C)C(O)C(O)C(O)C[C@H](O)C[C@H](O)C[C@H](O)C[C@H](O)C[C@@H]1O (stereo partly drawn)	inactive: -13.9% and inactive: -27.1%
COc1ccc2c(c1)C13CCCCC1C(C2)N(C)CC3 (stereo not drawn)	inactive: 7.24%
CCC(Oc1ccc(Cl)cc1)C(=O)OC1CC2CCC(C1)N2C (stereo not drawn)	inactive: -4.67%
CC(=O)OC1CC(OC(C)=O)[C@]2(C)C(CC(OC(C)=O)[C@]3(C)C2CC[C@@]2(C)C(c4ccoc4)C(=O)C4O[C@]432)C1(C)C (stereo partly drawn)	inactive: -19.5%
CC[C@H]1C[C@H]2[C@@H]3CCC4=CC(=O)CC[C@@H]4[C@H]3CC[C@]2(C)[C@H]1O	inactive: -5.89%
O=C1CC[C@]2(O)C3Cc4ccc(O)c5c4C2(CCN3CC2CC2)C1O5 (stereo partly drawn)	inactive: -3.02%
Oc1cc[c]([Hg][Cl])cc1	inactive: -12.7% and inactive: -6.42%
COC(=O)COc1ccc(Cl)cc1Cl	inactive: -2.38%
c1ccc2c(c1)Sc1ccccc1N2CC1CN2CCC1CC2 (stereo not drawn)	inactive: -18.9%
S=C(NC1CCCCC1)N1CCC(c2cnc[nH]2)CC1	inactive: 0.593% and inactive: -6.64%
C[N+]1(CCC(C(N)=O)(c2ccccc2)c2ccccc2)CCCCC1	inactive: 1.75%
CC(C)CN1CCC2(CC1)CCN(C(=O)Oc1ccccc1)CC2	inactive: -17.8%
O=P1(N(CCCl)CCCl)NC(OO)CCO1 (stereo not drawn)	inactive: 7.74%
COC(=O)/C=C\C(=O)N[C@@H]1CC[C@@]2(O)[C@H]3Cc4ccc(O)c5c4[C@@]2(CCN3CC2CC2)[C@@H]1O5	inactive: -3.77%
CC[C@H]1[C@@H]2C[C@H]3[C@@H]4N(C)c5ccccc5[C@]45C[C@@H](C2[C@H]5O)N3[C@@H]1O (stereo partly drawn)	inactive: -1.68%
CN1CCC2(CC1)CCN(C(=O)c1ccco1)CC2	inactive: 1.62%
CCCCCCCCCCCCCC(=O)OC1C(C)[C@@]2(O)C(C=C(CO)C[C@]3(O)C(=O)C(C)=C[C@H]23)[C@@H]2C(C)(C)[C@]12OC(C)=O (stereo partly drawn)	inactive: -58.1%
O=C1C(I)=CC(=C(c2cc(I)c(O)c(I)c2)c2ccccc2C(=O)O)C=C1I	inactive: -5.39% and inactive: -0.454%
CC(C)(C)NC[C@H](O)c1ccc(O)cc1Cl	inactive: -2.21%
COC(C)(C)CCCC(C)C/C=C/C(C)=C/C(=O)OC(C)C (stereo not drawn)	inactive: -45.8% and inactive: -17%
N#Cc1ccc(CN2CCC3(CC2)CCN(C(=O)Oc2ccccc2)CC3)cc1	inactive: -11.5%
CC(C)[C@H]1C(=O)N2CCC[C@H]2[C@]2(O)O[C@](NC(=O)[C@@H]3C[C@@H]4c5cccc6[nH]cc(c56)C[C@H]4N(C)C3)(C(C)C)C(=O)N12	inactive: -14%
